# From the supplement of paper PMC11417369
# ± gives the standard deviation of the averaged measurements. The list shows a part of the results.
# System: PfAP2-EXP AP2 domain (GST-tagged)
# Experiment: gcPBM binding intensity (ln(normalized median fluorescence intensity)); higher = stronger DNA binding
# Summary of the method: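 In this array assay, P. falciparum DNA-binding domains with a GST tag, expressed in E. coli, were applied for 1 h to primer-extended double-stranded 36-bp intergenic genomic probes and negative controls on an Agilent 4 × 180k array. Bound protein was visualised with Alexa488 anti-GST antibody at 488 nm. Binding intensity is the highest Masliner-normalised natural-log median intensity across replicate spots of either probe orientation.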
row,Sequence,gcPBM binding intensity (ln)
1,TTTCTTTCTATTGTTATATTTATAATAATTATAATT [XGTACX_negctrl_site215],8.57 ± 0.42
2,TATAAAATTACATTTTGTCATTTATTTTTTCCCACT [TGCATGCA_negctrl_site110],8.28 ± 0.45
3,TGTTTAAGTGTTTTTAGTACTTATAAAAATATTATC [XGTACX_site7379],8.25 ± 0.3
4,ATATTATCCCTATTTGCACACAAGAGTAATTTTTTA [CACACA_site3908],8.71 ± 0.38
5,TTTCTAATATATAAAGTGCAATACCATTCAGAGTTA,8.56 ± 0.3
6,ATTGTCTTTTAATAGTGTACTTATTTTAAATATTGC [XGTACX_site8517],8.65 ± 0.32
7,TATAATTTATAAGTAGTGCATTTCTTTTCATTTTTA,8.655 ± 0.007
8,AAGAAAATAAAATAAAATAAAATAAAATAAAAATAT [TGCATGCA_negctrl_site493],8.62 ± 0.34
9,ATATGGAAGAATTAAAGTACTTAAAAAAATGTCAGT [XGTACX_site6837],9.11 ± 0.51
10,TTTTATAGAGTGTATACATGCAATACCACATAAAAT [TGCATGCA_site476],8.98 ± 0.3
11,TGATGATATAAAAACACACACATATAACATAATACT [CACACA_site6687],8.71 ± 0.61
12,TTATTATATATAAGTAGTACAAACAATTAAGAGATA [XGTACX_site4009],8.84 ± 0.3
13,GTAAAAAAAAAAAAATGTACACATATATATAATATA [XGTACX_site159],8.37 ± 0.26
14,TTTTTTTTTTTTAATACACACATATATATATTTATT [CACACA_site3994],8.38 ± 0.42
15,AACATAATTAAAAATTGTACAGAATTTCAATCGAAA [XGTACX_site7542],8.54 ± 0.59
16,ATAAAAATGTATATATGTACATATATATATATATAT [XGTACX_site1505],9.97 ± 0.6
17,ATCACTTGAGAATAATTACATTAATATATATTTATG [TGCATGCA_negctrl_site581],8.17 ± 0.54
18,CTTTTTAATTAATACACACACACACCCATATATATA [CACACA_site2292],8.86 ± 0.27
19,CATATACATACACATACACACATACAGACATACACA [CACACA_site6919],8.69 ± 0.37
20,GGGAAAGAACCATATACATGCATATTTACCGTTAAA [TGCATGCA_site519],8.69 ± 0.38
21,TGAAATTTTATTAATGTGCACATATATTTATTGTTC,8.71 ± 0.29
22,ACATTCATAAAAAAAAGTACATTTTTTATAAAAGAA [XGTACX_site6197],8.53 ± 0.46

row,Sequence,gcPBM binding intensity (ln)
1,TTGTTAAATATTTATAAAATGAATTTAAAATGTACT [CACACA_negctrl_site665],8.34 ± 0.47
2,TATATTTAGAATACAATCTTAAAGTTGAAATAAAAT [CACACA_negctrl_site1292],8.16 ± 0.4
3,AACATAATAAAAAAACGTACATAATTTTATATACAT [XGTACX_site6602],8.51 ± 0.25
4,TTTATTATCTTATTCACACACATATATAAATATGTA [CACACA_site7369],8.58 ± 0.4
5,AAAAAAAAAACATACACACACACAAATATTTATATA [CACACA_site437],8.54 ± 0.71
6,ATATATCCAATATATATATATATATATATATATATA [CACACA_negctrl_site160],9.99 ± 0.74
7,AAATTATGTGCCAATACACACACACCGATATATATA [CACACA_site8050],8.72 ± 0.38
8,ATAATATAGAAACACACACACATATATATATACATT [CACACA_site555],8.71 ± 0.29
9,TTTATATATAAATATATATATATATATATATATATA [TGCATGCA_negctrl_site121],10.2 ± 0.35
10,TAGTTTTTATATAGCACACATATTGTGATTATGTAT [CACACA_site1196],8.61 ± 0.19
11,TACTACCACGGACATGCATGCACATTATTACTCTAA [TGCATGCA_site313],9.96 ± 0.13
12,TTCTTAGATTGTACAGTACACACCTTTAGAATGTTA [CACACA_site212],8.79 ± 0.4
13,AATTCATTTTACCCATGTACACAATTATATTTTATA [XGTACX_site4127],8.78 ± 0.22
14,AAGAAAAAATGATGAATAGAGATCAAATCTATATAT [TGCATGCA_negctrl_site29],8.38 ± 0.49
15,TTTTGTTACTTTTATGTGCACTTATAAAACGAACTA [GTGCAC_site9551],9.11 ± 0.014
16,GACTTTTCAATTTTTCGTACGTATAAATTGTATACA [XGTACX_site1488],8.81 ± 0.34
17,CTAATATATATCAATTGTACATATTGAATAAGAACA [XGTACX_site4541],8.59 ± 0.44
18,TTTTTATTGTTGTACTTATATTATTTTATTATTAAA [GTGCAC_negctrl_site200],8.96 ± 0.24
19,ATTCATTCATATGTTACACACACACCGACACATAAA [CACACA_site5749],8.87 ± 0.52
20,TTTTGAAGTAACAAATAAATAAATAAATATATAAAA [GTGCAC_negctrl_site517],8.54 ± 0.45
21,TATTAAACTGGACACACACACACACCCATATATAAA [CACACA_site4579],8.72 ± 0.59
22,ACATAATTTGATAATACACACAAATAATCTAAAATT [CACACA_site129],8.38 ± 0.41
